Results published in PubChem BioAssay AID2451 (National Center for Advancing Translational Sciences (NCATS), 2010).
Screen size: about 290,000 compounds; about 2,100 (0.72%) were called active. The shares of active, inactive and inconclusive entries below differ from those in the screen. Calls follow the shape of the dose curve; as a rule, active = well fitted inhibition curve with a large enough effect; inconclusive = small, poorly fitted or top-dose-only effect, or effect the other way; inactive = flat fitted curve, though single readings scatter. A potency beside an inconclusive call is a rough fit, not a confirmed value.

Target: Fructose-bisphosphate aldolase (Giardia intestinalis (strain ATCC 50803 / WB clone C6)) (UniProt A8B2U2)
Assay: qHTS Assay for Inhibitors of Fructose-1,6-bisphosphate Aldolase from Giardia Lamblia; also: nearly all actives have a fitted effect of over 55% in size
Conditions: purified Giardia FBPA; activity, negative = inhibition: at 59.6 µM (top of the series) unless noted
Procedure, shortened: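 Giardia FBPA (40 nM reagent) was preincubated 10 min at RT with compound (up to 57.5 uM final), then substrate plus GAPDH/TPI/NAD/arsenate coupling system with diaphorase/resazurin was added; resorufin fluorescence (525/598 nm) was read after 20 min.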
% is scaled to controls: 0 for no effect and ±100 for the full control effect; potency is read from the fitted curve at half-maximal effect; tags tell the direction and shape of the fitted curve.

UniProt A8B2U2, sequence (A8B2U2 whole entry, looked up): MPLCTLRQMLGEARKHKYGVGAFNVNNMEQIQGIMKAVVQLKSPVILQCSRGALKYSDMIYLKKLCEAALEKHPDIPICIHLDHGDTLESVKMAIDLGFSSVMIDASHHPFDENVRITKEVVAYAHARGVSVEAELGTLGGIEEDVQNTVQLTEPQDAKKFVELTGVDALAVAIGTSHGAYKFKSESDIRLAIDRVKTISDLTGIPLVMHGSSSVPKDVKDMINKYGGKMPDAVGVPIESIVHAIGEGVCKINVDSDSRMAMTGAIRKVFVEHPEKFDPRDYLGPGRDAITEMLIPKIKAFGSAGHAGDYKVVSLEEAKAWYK

| SMILES | Potency | activity, negative = inhibition |
| --- | --- | --- |
| CCOc1ccc(-c2n[nH]c(C)c2Oc2ccc(OC)cc2)c(O)c1 | inconclusive: 22.3 µM [inhibitor, single point] | – |
| COc1cc(N=c2ssnc2Cl)cc(OC)c1 | active: 15.8 µM | – |
| Cc1ccc(Nc2nc(N3CCOCC3)nc(N3CCOCC3)n2)cc1Cl | inconclusive: 39.8 µM [inhibitor, single point] | – |
| O=C(c1ccc2nc(-c3ccco3)c(-c3ccco3)nc2c1)N1CCN(c2ccccc2)CC1 | inconclusive: 7.92 µM [inhibitor, full curve] | – |
| C/C(Cn1nnc([N+](=O)[O-])n1)=N\NC(=O)c1ccc(O)cc1 | inconclusive: 15.8 µM [inhibitor, partial curve] | – |
| Cc1ccsc1-c1nc(CN(C)C(C2CC2)C2CC2)c(C)o1 | inactive | – |
| O=C(C1CCN(S(=O)(=O)c2cccc3cccnc23)CC1)N1CC=C(c2ccccc2)CC1 | inactive | – |
| Cc1ccc(NCCC(=O)c2ccc(Cl)cc2)cc1 | inconclusive: 25.1 µM [inhibitor, single point] | – |
| O=C(CSc1ncn[nH]1)c1ccco1 | inconclusive: 22.3 µM [inhibitor, partial curve] | – |
| CC(=O)Nc1ccc(C(=O)Nc2nc(-c3ccccn3)cs2)cc1 | inconclusive: 15.8 µM [inhibitor, single point] | – |
| CCN1C(=O)[C@H]2[C@@H](c3ccc(C)cc3)N3C(=O)N(c4ccc(OC)cc4)C(=O)[C@@]3(C)[C@H]2C1=O | inactive | – |
| CC/C(=N\Nc1cccc2ccccc12)c1c(O)[nH]c(=O)[nH]c1=O | inconclusive: 17.7 µM [inhibitor, partial curve] | – |
| Cc1nc(N2CCOCC2)c2nc(-c3ccccc3)n(CCCN3CCCCC3C)c2n1 (stereo not given) | inactive | – |
| CCN1C(=Nc2ccc(Cl)cc2)SC/C1=C\C(=O)OC | inactive | – |
| CCn1c(CNC(=O)c2ccccc2Br)nnc1SCC(=O)Nc1nncs1 | inconclusive: 31.6 µM [inhibitor, partial curve] | – |
| COc1ccc(CN2CCCC(C(=O)c3ccc(Cl)cc3)C2)cc1Cn1cccn1 (stereo not given) | inactive | – |
| Cc1cc(OC(C)C(=O)NC(Cc2c[nH]c3ccc(O)cc23)C(=O)O)c2c(C)c(C)c(=O)oc2c1 (stereo not given) | inconclusive: 17.8 µM [inhibitor, partial curve] | – |
| COc1ccc(/C=C/C(=O)c2ccncc2)c2ccccc12 | inconclusive: 15.8 µM [inhibitor, partial curve] | – |
| COCc1cc(C)nc(N/N=C/c2ccc(-c3ccc(Cl)cc3[N+](=O)[O-])o2)c1C#N | inconclusive: 0.398 µM [inhibitor, full curve] | – |
| O=C(c1ccc(NC(=O)C2(c3ccccc3)CCCC2)cc1)N1CCOCC1 | inactive | – |
| Cc1ccc[n+](C2C(c3ccc([N+](=O)[O-])cc3)C(C#N)=C([S-])NC2(O)C2CC2)c1 (stereo not given) | inconclusive: 19.9 µM [inhibitor, partial curve] | – |
| CN1C=CC=C/C1=C1\SC(=S)N(N)C1=O | inconclusive: 17.7 µM [inhibitor, single point] | – |

| SMILES | Potency | activity, negative = inhibition |
| --- | --- | --- |
| CC1CCCCN1S(=O)(=O)c1ccc(C(=O)Nc2nnc(-c3ccccc3Cl)o2)cc1 (stereo not given) | inconclusive: 19.9 µM [activator, partial curve] | – |
| CN(CC(=O)Nc1ccc(Cl)c(Cl)c1)C1CCCCC1 | inconclusive: 14.1 µM [inhibitor, partial curve] | – |
| CC(C)(C)c1ccc(C(=O)Nc2cccc3c(=O)[nH][nH]c(=O)c23)cc1 | active: 19.9 µM | – |
| CSc1nc(=S)c2[nH]c(=S)[nH]c2[nH]1 | inconclusive: 4.46 µM [inhibitor, partial curve] | – |
| NC(=O)c1ccccc1NC(=O)c1ccc2c(c1)OCO2 | inactive | – |
| O=C(NN1C(=O)/C(=C/c2ccc(O)c(O)c2)SC1=S)c1ccccc1 | active: 14.1 µM | – |
| O=C(CCn1c(=S)[nH]c2cc3c(cc2c1=O)OCO3)NCc1ccc(Cl)cc1 | – | inconclusive: 45% [activator] |
| Cc1nc2c(=O)n(C)c(=O)[nH]c2n1Cc1ccccc1 | inconclusive: 12.6 µM [inhibitor, partial curve] | – |
| CCNC(=O)N1CCCC(C(=O)c2ccc3cc(OC)ccc3c2)C1 (stereo not given) | inactive | – |
| Cc1cccc(C)c1NC(=S)N(CCN1CCCCCC1)Cc1ccco1 | inconclusive: 17.7 µM [inhibitor, single point] | – |
| CCc1cccc(CC)c1NC(=O)C(CC)Sc1nc2ccncc2[nH]1 (stereo not given) | inconclusive: 15.8 µM [inhibitor, partial curve] | – |
| Cc1c(C(c2cccc(Br)c2)c2c(C)n(C)n(-c3ccccc3)c2=O)c(=O)n(-c2ccccc2)n1C | inconclusive: 12.6 µM [inhibitor, partial curve] | – |
| Cc1cccnc1NC(=S)NC(=O)/C=C/c1ccccc1 | inconclusive: 17.7 µM [inhibitor, single point] | – |
| N#Cc1c(-c2ccco2)cc(-c2ccccc2)[nH]c1=O | inconclusive: 14.1 µM [inhibitor, partial curve] | – |
| CCOC(=O)N1CCC(N(CCOC)C(=S)Nc2cccc(SC)c2)CC1 | inconclusive: 31.5 µM [inhibitor, single point] | – |
| Cc1ccc(S(=O)(=O)/N=C2/NC(=O)/C(=C/c3ccccc3)S2)cc1 | inconclusive: 17.7 µM [activator, single point] | – |
| N#C/C(=C(/O)CSc1nnc(Cc2cccs2)n1C1CCCCC1)c1nc2ccccc2[nH]1 | inconclusive: 8.89 µM [activator, partial curve] | – |
| C[C@@H]1O[C@@H](O[C@H]2CC[C@@H](O[C@H]3[C@H](O)C[C@H](c4ccc5c(c4O)C(=O)C4=C(C5=O)[C@@]5(O)C(=O)C[C@](C)(O[C@H]6CC[C@H](O[C@H]7C=CC(=O)[C@H](C)O7)[C@H](C)O6)C[C@@]5(O)C=C4)O[C@@H]3C)O[C@H]2C)C=CC1=O | active: 7.06 µM | – |
| C/C(=C\c1ccccc1)CN1CCN(c2ccccc2F)CC1 | inconclusive: 14.1 µM [inhibitor, partial curve] | – |
| Cc1cccc(C(=O)NC(=S)Nc2cccc3nc(C)ccc23)c1 | inconclusive: 14.1 µM [inhibitor, partial curve] | – |
| O=c1[nH]c(=O)n(CCC2=CCCCC2)c(O)c1C=Nc1cccc(F)c1 | inactive | – |
| COc1ccc(C(C[N+](=O)[O-])c2c(C)cc3ccccn23)cc1 (stereo not given) | inconclusive: 15.8 µM [inhibitor, single point] | – |

| SMILES | Potency | activity, negative = inhibition |
| --- | --- | --- |
| Cc1ccccc1Nc1c(-c2ccc(N3CCOCC3)cc2)nc2cnccn12 | inactive | – |
| Cn1c(-c2ccc(F)cc2)cnc1NCc1cccc([N+](=O)[O-])c1 | inconclusive: 20 µM [inhibitor, partial curve] | – |
| Cc1ccn2c(NC3CCCC3)c(-c3cccs3)nc2c1 | inconclusive: 22.3 µM [inhibitor, single point] | – |
| Cc1[nH]n(-c2ccccc2)c(=O)c1N=Nc1ccc(F)cc1 | inconclusive: 12.6 µM [inhibitor, partial curve] | – |
| CCC1=C[C@@H]2CN(C1)Cc1c([nH]c3ccccc13)[C@@](C(=O)OC)(c1cc3c(cc1OC)N(C)[C@H]1[C@@](O)(C(=O)OC)[C@H](OC(C)=O)[C@]4(CC)C=CCN5CC[C@]31[C@@H]54)C2 | inconclusive: 17.7 µM [inhibitor, partial curve] | – |
| COc1cccc(C(C#N)N2CCCCC2)c1O (stereo not given) | inconclusive: 12.6 µM [inhibitor, partial curve] | – |
| NCC(O)c1ccc(O)c(O)c1 (stereo not given) | inconclusive: 0.706 µM [inhibitor, full curve] | – |
| CCOC(=O)c1c(NC(=O)CCNCc2ccco2)sc2c1CCC2 | inconclusive: 14.1 µM [inhibitor, partial curve] | – |
| Cc1ccc(C2(c3ccc(C)cc3)CC2C(=O)NC(C)C)cc1 (stereo not given) | inactive | – |
| CCCCCCNC(=O)N[C@H](C(=O)NCCC[C@H]1CN2C(=NC[C@H]2C)N1CCC(c1ccccc1)c1ccccc1)C(C)O (stereo not given in full) | inconclusive: 22.3 µM [inhibitor, partial curve] | – |
| CN(CC(=O)Nc1nc2ccccc2s1)S(=O)(=O)c1ccc(Cl)cc1 | inactive | – |
| CCOC(=O)C1=C(C)NC(=S)NC1c1ccc(-c2cccc(Cl)c2C)o1 (stereo not given) | inconclusive: 31.5 µM [inhibitor, single point] | – |
| CCCn1c(=S)[nH]c2ccc(C(F)(F)F)cc21 | inconclusive: 44.6 µM [inhibitor, single point] | – |
| COc1ccc(OC)c(CN2CCN(CCCc3ccccc3)C(CCO)C2)c1 (stereo not given) | inactive | – |
| COc1cccc(OC)c1C(=O)N1CCN(Cc2ccc3c(c2)OCO3)CC1 | inconclusive: 15.8 µM [inhibitor, partial curve] | – |
| CC1(C)Cc2nc3oc4c(=O)n(CC(=O)Nc5ccccc5)cnc4c3cc2CO1 | inactive | – |
| CCOC(=O)C1=C(C)N(c2ccc(OC)cc2)C(=O)/C1=C\c1ccc(O)c(OCC)c1 | inconclusive: 17.7 µM [inhibitor, partial curve] | – |
| CS(=O)(=O)Nc1ccc([N+](=O)[O-])cc1Oc1ccccc1 | inconclusive: 15.8 µM [activator, single point] | – |
| O=C(CNCC1CCCCC1)Nc1ccccc1N1CCCCC1 | inconclusive: 22.3 µM [inhibitor, partial curve] | – |
| CCc1ccc(OCc2nnc(SCCN3CCOCC3)n2C)cc1 | inconclusive: 15.8 µM [inhibitor, single point] | – |
| O=C(O[C@@H]1Cc2c(O)cc(O)cc2OC1c1ccc(O)c(O)c1)c1cc(O)c(O)c(O)c1 (stereo not given in full) | inconclusive: 19.9 µM [inhibitor, partial curve] | – |
